Measurements published in PubChem BioAssay AID651820 (National Center for Advancing Translational Sciences (NCATS), 2012).
Out of some 340,000 compounds screened, about 12,000 (3.5%) were called active. The shares of active, inactive and inconclusive entries below differ from those in the screen. The call rests on the fitted dose curve; in most records, active means well fitted inhibition curve with a large enough effect; inconclusive means small, poorly fitted or top-dose-only effect, or another doubt; inactive means no such curve, though single readings can be large or run the other way. No potency is given beside an inconclusive call; the fits are too rough.

Experiment: qHTS Assay for Inhibitors of Hepatitis C Virus (HCV)
Conditions: Huh7.5.1 HCVcc-Cre (HCVcc is cell-culture hepatitis C virus) infection, luciferase reporter, 44 h; series mostly up to 41.8 µM
Method in brief: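 Antiviral activity was scored by luciferase reporter output from cells infected with HCVcc-Cre (~0.5 moi) in presence of compound, 44 h infection period, cells seeded 1,000/well 4 h prior.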
Potency means the concentration at half of the fitted maximal effect; tags describe the fitted curve by direction and shape.

Which Potency does the source give for COc1ccc(NC(=O)C(=S)NC2CCCCC2)cc1 here?
Its Potency is “inactive”.

Which Potency does the source give for COc1ccc2c(-c3ccccc3)cc(SCC(=O)N(C)C3CCS(=O)(=O)C3)nc2c1 (centres undefined) here?
Its Potency is inconclusive [inhibitor, partial curve].

Which Potency does the source give for CCN(C(=O)/C=C/c1ccc(OC)cc1)C1CCCCC1 here?
Its Potency is inconclusive [inhibitor, single point].

For COC(=O)C1=C(c2cccc(C#N)c2)C[C@@H]2CC[C@H]1N2C(=O)NCc1cc(C)oc1C(F)(F)F, which Potency is on record?
Its Potency is inconclusive [inhibitor, partial curve].

With O=C1CCCc2cc3c(ccc4ccccc43)cc21 as the compound, how does the Potency read?
The Potency was inconclusive [inhibitor, single point].

For c1ccc(N2CCN(CCc3nnc4n3CCCCC4)CC2)cc1, which Potency is on record?
Its Potency is “inactive”.

With O=C1CCCCC1CCc1ccncc1 (centres undefined) as the compound, how does the Potency read?
The Potency was “inactive”.

For COc1ccc(CN2C(=O)c3ccccc3C(/C=N/OCc3ccc(Cl)cc3)C2=O)cc1 (centres undefined), which Potency is on record?
The Potency was “inactive”.

Which Potency does the source give for CCC(CO)Oc1cc(NCc2cccc(C(F)(F)F)c2)c2ncn(C(C)C)c2c1 (centres undefined) here?
Its Potency is inconclusive [inhibitor, single point].

Which Potency does the source give for Cc1ccc(-c2n[nH]c(=S)n2/N=C/c2c(C)nn(-c3ccccc3)c2C)cc1 here?
The Potency was “inactive”.

With Cn1c(=O)[nH]c(=O)c2c1nc(OC(=O)c1ccccc1)n2CC(O)COc1ccc(F)cc1 (centres undefined) as the compound, how does the Potency read?
The Potency was inconclusive [inhibitor, single point].

For Cc1ccc2c(c1)N(Cc1cccc(F)c1)C(=O)C(C)O2 (centres undefined), which Potency is on record?
Its Potency is “inactive”.

Which Potency does the source give for COc1ccc(-c2nnn(CC(=O)OC3CCCCC3)n2)cc1OC here?
The Potency was “inactive”.

With Cc1cc(NC(=O)c2ccc(F)cc2)ccc1NC(=O)c1ccco1 as the compound, how does the Potency read?
The Potency was inconclusive [inhibitor, single point].

For COc1ccccc1NC(=S)NNC(=O)c1nn(C)c(C)c1Cl, which Potency is on record?
Its Potency is “inactive”.

With CC1CCc2cc(F)ccc2N1C(=O)CSc1nnc2c(n1)[nH]c1ccc(F)cc12 (centres undefined) as the compound, how does the Potency read?
Its Potency is inconclusive [inhibitor, partial curve].

For Cc1oncc1C(=O)Nc1ccc(C(F)(F)F)cc1, which Potency is on record?
The Potency was “inactive”.

With COc1ccc(NC(=O)c2ccc(NC(=O)c3cccs3)cc2)cc1 as the compound, how does the Potency read?
The Potency was inconclusive [inhibitor, partial curve].

With CCCOC(=O)c1cccc(NC(=O)c2cccnc2)c1 as the compound, how does the Potency read?
The Potency was inconclusive [inhibitor, partial curve].

Which Potency does the source give for NC(=O)c1ccc(NC(=O)CN2CCN(Cc3ccccc3)CC2)cc1 here?
The Potency was “inactive”.

For O=C(N/C(=C\c1ccccc1)C(=O)N1CCOCC1)c1ccco1, which Potency is on record?
Its Potency is “inactive”.

With O=C(O)C1CC(c2ccccc2)=NO1 (centres undefined) as the compound, how does the Potency read?
Its Potency is “inactive”.

With Cc1ccccc1NC1=C/C(=N\S(=O)(=O)c2cccs2)c2ccccc2C1=O as the compound, how does the Potency read?
Its Potency is active: 3.55 µM.

For COc1cccc(-c2nc3sc4c(c3c(=O)[nH]2)CCCCC4)c1, which Potency is on record?
Its Potency is “inactive”.

With Cc1ccc(NC(=S)NC2CCCC2)c(C)c1 as the compound, how does the Potency read?
Its Potency is “inactive”.

Which Potency does the source give for CCn1c2ccccc2c2cc(NC(=O)CNCc3ccccc3OC)ccc21 here?
The Potency was inconclusive [inhibitor, partial curve].

Which Potency does the source give for C[C@@H](N)C(=O)NC[C@H]1O[C@@H](n2cnc3c(N)ncnc32)[C@H](O)[C@@H]1O here?
Its Potency is “inactive”.

With C#CCOc1ccccc1CNC1CCN(Cc2ccccc2)CC1 as the compound, how does the Potency read?
Its Potency is inconclusive [inhibitor, partial curve].

For COC(=O)c1ccccc1C(=O)N1CCCC(C(=O)c2ccc(OC)c(OC)c2)C1 (centres undefined), which Potency is on record?
Its Potency is “inactive”.

For COc1ccc(OC)c(CNn2c(-c3cccc(C)c3)nc3ccccc3c2=O)c1, which Potency is on record?
The Potency was inconclusive [inhibitor, partial curve].

Which Potency does the source give for COc1ccc(CNC(=O)COC(=O)c2cccn2C)cc1 here?
Its Potency is “inactive”.

For Cn1c2ccc(F)cc2c2nnc(SCCN3CCCCC3)nc21, which Potency is on record?
Its Potency is active: 11.2 µM.

With CSc1ccccc1NC(=O)COC(=O)/C=C/c1ccco1 as the compound, how does the Potency read?
The Potency was inconclusive [inhibitor, partial curve].

With N#CC1c2ccccc2-n2nncc2CN1Cc1cc(Cl)cc(Cl)c1 (centres undefined) as the compound, how does the Potency read?
The Potency was active: 5.62 µM.

With Cc1ccc(NC(=O)C(C)OC(=O)Cn2cnc3ccccc3c2=O)cc1 (centres undefined) as the compound, how does the Potency read?
Its Potency is inconclusive [inhibitor, single point].

Which Potency does the source give for Cc1cc(NC(=O)CN2C(=O)CC(c3ccco3)Sc3ccccc32)no1 (centres undefined) here?
Its Potency is active: 35.5 µM.

Which Potency does the source give for CCC(C)c1ccccc1NC(=O)C(C)N(C)Cc1cccc(OC)c1 (centres undefined) here?
The Potency was inconclusive [inhibitor, single point].

For CC(=O)c1cccc(NC(=O)CN2CCc3cc4c(cc3C2)OCCCO4)c1, which Potency is on record?
The Potency was inconclusive [inhibitor, partial curve].

Which Potency does the source give for COc1ccc(NC(=S)NC(NC(=O)c2cccc3ccccc23)C(Cl)(Cl)Cl)c([N+](=O)[O-])c1 (centres undefined) here?
Its Potency is active: 10 µM.

Which Potency does the source give for C=C1C(=O)O[C@@H]2C[C@@H](C)[C@@H]3C=CC(=O)[C@@]3(C)[C@@H](O)[C@H]12 here?
The Potency was active: 1.41 µM.

Which Potency does the source give for CCOc1ccc(-c2csc(/C(C#N)=C\c3ccc(O)c([N+](=O)[O-])c3)n2)cc1 here?
Its Potency is inconclusive [inhibitor, partial curve].

Which Potency does the source give for O=C(CCCCCn1c(=O)[nH]c2ccsc2c1=O)N1CCCCC1 here?
Its Potency is “inactive”.

Which Potency does the source give for CCC(C)c1ccc(OCC(=O)Nc2ccc(Cl)cn2)cc1 (centres undefined) here?
The Potency was “inactive”.

With Cc1[nH]c(SCC(=O)Nc2cc(S(C)(=O)=O)ccc2Cl)nc1Cc1ccccc1 as the compound, how does the Potency read?
The Potency was inconclusive [inhibitor, single point].

With Cc1onc(-c2c(F)cccc2Cl)c1C(=O)Nc1sc2c(c1C(N)=O)CCC2 as the compound, how does the Potency read?
Its Potency is inconclusive [inhibitor, single point].

For CCOc1ncccc1C(=O)Nc1nnc(C2CC2)s1, which Potency is on record?
Its Potency is inconclusive [inhibitor, single point].

For COc1cccc(Nc2nc(C)cc(C)c2C(N)=O)c1, which Potency is on record?
Its Potency is “inactive”.

For COc1ccc(C(=O)NC2(C(F)(F)F)NC(=O)N(CCCc3ccccc3)C2=O)cc1OC (centres undefined), which Potency is on record?
The Potency was inconclusive [inhibitor, single point].

With N#C/C(=N\Nc1cccc(Cl)c1)C(=O)c1ccccc1 as the compound, how does the Potency read?
Its Potency is inconclusive [inhibitor, single point].

With Oc1ccc(-c2n[nH]c(C(F)(F)F)c2-c2ccccc2)c(O)c1 as the compound, how does the Potency read?
Its Potency is active: 5.62 µM.

With COc1ccc(C(C)=O)cc1COC(=O)c1cc(C)nc2ccccc12 as the compound, how does the Potency read?
Its Potency is inconclusive [inhibitor, partial curve].

With CC(Nc1nc(N2CCNCC2)nc2ccccc12)c1ccccc1 (centres undefined) as the compound, how does the Potency read?
Its Potency is active: 10 µM.

With COc1ccccc1-c1nc(C#N)c(N2CCc3ccccc3C2)o1 as the compound, how does the Potency read?
Its Potency is active: 11.2 µM.

With Cc1csc2c(N3CCN(C(=O)Nc4ccc(Cl)c(Cl)c4)CC3)ncnc12 as the compound, how does the Potency read?
The Potency was inconclusive [inhibitor, partial curve].

With Brc1ccc(C2=Nn3c(nnc3-c3n[nH]c4c3CCC4)SC2)cc1 as the compound, how does the Potency read?
Its Potency is inconclusive [inhibitor, full curve, poor fit].

Which Potency does the source give for CN(C(=O)c1ccc(NC(=O)Cc2ccc(NC(=O)C3CCCN(C(=O)CCc4ccccc4)C3)cc2)cc1)C1CCCC1 (centres undefined) here?
Its Potency is inconclusive [inhibitor, partial curve].

For COc1ccc(N(CC(=O)Nc2ccc(S(=O)(=O)N3CCOCC3)cc2)S(=O)(=O)c2ccccc2)cc1, which Potency is on record?
The Potency was active: 3.98 µM.

Which Potency does the source give for O=C(Nc1ccc2nc(-c3ccco3)c(-c3ccco3)nc2c1)NC1CC1 here?
The Potency was inconclusive [inhibitor, partial curve].

For CCOC(=O)c1sc2nc3c(cc2c1N)COC(C)(CC)C3 (centres undefined), which Potency is on record?
Its Potency is inconclusive [inhibitor, partial curve].

With COc1cccc(-c2nc(-c3ccccn3)no2)c1OC as the compound, how does the Potency read?
The Potency was inconclusive [inhibitor, single point].

For COc1ccc(CCNC(=O)CNS(=O)(=O)c2ccc(F)c(Cl)c2)cc1OC, which Potency is on record?
Its Potency is “inactive”.

Which Potency does the source give for CC(C)OC(=O)CSc1nnc(-c2cnccn2)n1-c1ccc(Cl)cc1 here?
The Potency was “inactive”.

For c1ccc(-c2nc(NCc3ccco3)c3oc4ccccc4c3n2)cc1, which Potency is on record?
Its Potency is inconclusive [inhibitor, partial curve].

Which Potency does the source give for O=C(c1cccc(-c2ccco2)c1)N1CCCC(N2CCN(c3ccc(F)cc3)CC2)C1 (centres undefined) here?
The Potency was inconclusive [inhibitor, single point].

For CC(=O)Nc1cccc(-c2csc(Nc3ccc(C)cn3)n2)c1, which Potency is on record?
The Potency was inconclusive [inhibitor, single point].

With Fc1ccc(Cn2nnnc2C(c2ccc(Cl)cc2)N2CCSCC2)cc1 (centres undefined) as the compound, how does the Potency read?
The Potency was “inactive”.

For CCS(=O)(=O)c1ccc(N=Nc2ccc(O)c3ncccc23)c(OC)c1, which Potency is on record?
Its Potency is inconclusive [inhibitor, single point].

With O=C(NCc1nc2ccccc2[nH]1)C1=C[C@H](c2csc3ccccc23)C[C@H](OCc2ccc(CO)cc2)O1 as the compound, how does the Potency read?
Its Potency is inconclusive [inhibitor, single point].

For Cc1[nH]nc(-c2ccc(O)cc2O)c1Oc1ccccc1, which Potency is on record?
The Potency was inconclusive [inhibitor, single point].

With N#C/C(=C\c1ccccc1)C(=O)N1CCC(C(N)=O)CC1 as the compound, how does the Potency read?
Its Potency is “inactive”.

With COc1ccc(CNC(=O)c2c([S-])n(-c3ccc(C)cc3)c3cccc[n+]23)cc1 as the compound, how does the Potency read?
The Potency was inconclusive [inhibitor, single point].

Which Potency does the source give for O=C(N/C(=C/c1ccc(Br)cc1)C(=O)N1CCCCC1)c1ccccc1F here?
The Potency was inconclusive [inhibitor, partial curve].

With Cc1cc(C)c(OCC(O)CN2CCN(c3ccccn3)CC2)c(C)c1 (centres undefined) as the compound, how does the Potency read?
Its Potency is inconclusive [inhibitor, single point].

For Cc1[nH]c(=O)c(C#N)c(C)c1[N+](=O)[O-], which Potency is on record?
The Potency was “inactive”.
